Test results published in the supplement of paper PMC11880418.
Counter-ions that a name gives are not always drawn. The list shows a part of the results. The data scatter; read single values as rough.

Test system: MKN45
Experiment: ALDHbr (CSC) cell proportion score relative to DMSO vehicle (ratio to DMSO); breast (SUM159) / gastric (MKN45) / pancreatic (PANC1) / colon cancer lines; ALDHbr cells have high ALDH activity and are rich in cancer stem cells (CSC); higher = more CSC (ALDHbr) cells remaining
Settings: 10 µM; 72 h
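Also: High-content imaging of ALDEFLUOR-stained cells with Hoechst-labelled nuclei in 384-well plates, triplicate wells, scored as Z-score against 0.1% DMSO vehicle, negative meaning fewer ALDHbr cells.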

Structure (SMILES) | ALDHbr
CC1COc2c(N3CCN(C)CC3)c(F)cc3c(=O)c(C(=O)O)cn1c23 (centres undefined) [Ofloxacin] | 1.17
CNc1ncnc2c1ncn2[C@@H]1O[C@H](CO)[C@@H](O)[C@H]1O [N6-methyladenosine] | 0.981
CCN(CC)CCNC(=O)c1ccc(N)cc1 [Procainamide hydrochloride] | 1.12
NS(=O)(=O)c1cc2c(cc1Cl)N=CNS2(=O)=O [Chlorothiazide] | 0.838
CNC(=C[N+](=O)[O-])NCCSCc1ccc(CN(C)C)o1 [Ranitidine hydrochloride] | 1.16
OCCN1CCN(CC/C=C2/c3ccccc3Sc3ccc(Cl)cc32)CC1 [Zuclopenthixol dihydrochloride] | 0.739
Cc1cc(NC(=O)C2=C(O)c3ccccc3S(=O)(=O)N2C)no1 [Isoxicam] | 0.995
CC[C@H](C)C(=O)O[C@H]1C[C@H](O)C=C2C=C[C@H](C)[C@H](CC[C@@H](O)C[C@@H](O)CC(=O)O)[C@H]21 [Pravastatin] | 1.09
O=C(CCCN1CCN(c2ccccn2)CC1)c1ccc(F)cc1 [Azaperone] | 1.01
CCN(CC)CCCC(C)Nc1ccnc2cc(Cl)ccc12 (centres undefined) [Chloroquine diphosphate] | 1.2
CC(=O)OCC(=O)[C@@]12OC3(CCCC3)O[C@@H]1C[C@H]1[C@@H]3CCC4=CC(=O)C=C[C@]4(C)[C@@]3(F)[C@@H](O)C[C@@]12C [Amcinonide] | 1.16
OCC(O)CN1CCN(c2ccccc2)CC1 (racemic) [Dropropizine (R,S)] | 1.01
O=C(O)CNC(=O)C(CS)Cc1ccccc1 (centres undefined) [Thiorphan] | 0.857
CSc1ccc2c(c1)N(CCC1CCCCN1C)c1ccccc1S2 (centres undefined) [Thioridazine hydrochloride] | 1.26
OCCN1CCN(CCCN2c3ccccc3Sc3ccc(C(F)(F)F)cc32)CC1 [Fluphenazine dihydrochloride] | 1.07
N[C@@H]1CCCCN(c2c(F)cc3c(=O)c(C(=O)O)cn(C4CC4)c3c2Cl)C1 [Besifloxacin hydrochloride] | 1.25
C#C[C@]1(O)CC[C@H]2[C@@H]3CCc4cc(OC)ccc4[C@H]3CC[C@@]21C [Ethynylestradiol 3-methyl ether] | 0.637
CCOC(=O)[C@H](CCc1ccccc1)N[C@H]1CCc2ccccc2N(CC(=O)O)C1=O [Benazepril hydrochloride] | 1.02
CCN(CC)C(=O)C1(c2ccccc2)CC1CN (centres undefined) [Milnacipran hydrochloride] | 1.09
O=C1CN(/N=C/c2ccc(-c3ccc([N+](=O)[O-])cc3)o2)C(=O)N1 [Dantrolene sodium salt] | 0.783

Structure (SMILES) | ALDHbr
CO[C@@]1(NC(=O)CSCC#N)C(=O)N2C(C(=O)O)=C(CSc3nnnn3C)CS[C@@H]21 [Cefmetazole sodium salt] | 1.02
O=C(N[C@H](CO)[C@H](O)c1ccc([N+](=O)[O-])cc1)C(Cl)Cl [Chloramphenicol] | 0.568
Clc1ccc(C(c2ccccc2Cl)C(Cl)Cl)cc1 (centres undefined) [Mitotane] | 0.844
c1ccc(CN(CC2=NCCN2)c2ccccc2)cc1 [Antazoline hydrochloride] | 1.18
O=C(O)c1cccnc1 [Niacin] | 1.2
CC[C@H]1OC(=O)[C@H](C)[C@@H](O[C@H]2C[C@@](C)(OC)[C@@H](O)[C@H](C)O2)[C@H](C)[C@@H](O[C@@H]2O[C@H](C)C[C@H](N(C)C)[C@H]2O)[C@](C)(O)C[C@@H](C)CN(C)[C@H](C)[C@@H](O)[C@]1(C)O [Azithromycin] | 0.96
O=C1NCN(c2ccccc2)C12CCN(CCCC(c1ccc(F)cc1)c1ccc(F)cc1)CC2 [Fluspirilen] | 0.842
CCOC(=O)NNc1nncc2ccccc12 [Todralazine hydrochloride] | 1.25
Cc1c(NC(C)C)c(=O)n(-c2ccccc2)n1C [Isopyrin hydrochloride] | 0.756
CS(=O)(=O)c1ccc([C@@H](O)[C@@H](CO)NC(=O)C(Cl)Cl)cc1 [Thiamphenicol] | 0.553
O=C(c1ccc(F)cc1)C1CCN(CCn2c(=O)[nH]c3ccccc3c2=O)CC1 [Ketanserin tartrate hydrate] | 1.02
O=C(Nc1cccc2c(=O)cc(-c3nnn[nH]3)oc12)c1ccc(OCCCCc2ccccc2)cc1 [Pranlukast] | 1.13
Cc1cnc(NC(=O)C2=C(O)c3ccccc3S(=O)(=O)N2C)s1 [Meloxicam] | 0.964
O=C1[C@H](CC[C@H](O)c2ccc(F)cc2)[C@@H](c2ccc(O)cc2)N1c1ccc(F)cc1 [Ezetimibe] | 0.942
C[C@H]1C[C@H]2[C@@H]3CCC4=CC(=O)C=C[C@]4(C)[C@@]3(F)[C@@H](O)C[C@]2(C)[C@@]1(O)C(=O)CO [Betamethasone] | 1.09
Cn1cnc2c1c(=O)[nH]c(=O)n2C [Theobromine] | 1.12
C[C@](N)(Cc1ccc(O)c(O)c1)C(=O)O [Methyldopa (L,-)] | 1.09
S=c1[nH]cnc2nc[nH]c12 [Mercaptopurine] | 0.452
C[N+](C)(C)CCOC(N)=O [Carbachol] | 1.05
